Reference: PubChem BioAssay AID1030 (National Center for Advancing Translational Sciences (NCATS), 2008)
In all, about 220,000 compounds went through this assay and about 16,000 (7.3%) were called active. Inconclusive means that the source gave no clear call. Such entries were picked first, then a sample of the others. Calls follow the shape of the dose curve; as a rule, active = well fitted inhibition curve with a large enough effect (not every such curve was filed as active); inconclusive = small, poorly fitted or top-dose-only effect, or another doubt; inactive = no such curve, though single readings can be large or run the other way. Where the call is inconclusive, the potency comes from a doubtful curve fit.

target: Aldehyde dehydrogenase 1A1 (Homo sapiens) (UniProt P00352); experiment: qHTS Assay for Inhibitors of Aldehyde Dehydrogenase 1 (ALDH1A1); conditions: Purified ALDH1A1, NADH fluorescence, propionaldehyde substrate; series mostly up to 75.3 µM;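 as to activity, negative = inhibition: plate controls were no enzyme wells and a reference inhibitor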
UniProt P00352, sequence (P00352 whole entry, looked up): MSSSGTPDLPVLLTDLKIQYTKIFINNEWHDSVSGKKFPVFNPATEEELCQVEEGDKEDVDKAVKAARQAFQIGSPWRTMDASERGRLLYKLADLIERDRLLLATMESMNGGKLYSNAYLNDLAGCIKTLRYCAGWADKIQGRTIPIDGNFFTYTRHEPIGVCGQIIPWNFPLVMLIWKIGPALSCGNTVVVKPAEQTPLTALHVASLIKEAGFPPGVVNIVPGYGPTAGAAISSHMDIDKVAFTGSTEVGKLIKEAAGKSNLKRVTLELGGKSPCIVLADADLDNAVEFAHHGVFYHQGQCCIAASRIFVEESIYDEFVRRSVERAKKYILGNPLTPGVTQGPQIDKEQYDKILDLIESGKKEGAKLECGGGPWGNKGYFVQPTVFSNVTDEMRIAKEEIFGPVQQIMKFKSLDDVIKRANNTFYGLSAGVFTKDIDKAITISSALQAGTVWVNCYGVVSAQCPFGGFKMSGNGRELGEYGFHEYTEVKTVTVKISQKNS
Potency is read from the fitted curve at half-maximal effect; tags tell the direction and shape of the fitted curve.

Potency, inactive:
Cc1ccc(OCCOc2cccc(Br)c2)c([N+](=O)[O-])n1, CCN(C(=O)COC(=O)/C=C/c1c(C)nn(Cc2ccc(C)cc2)c1C)C1CCS(=O)(=O)C1 (configuration not stated), CCn1c(-c2nn(-c3ccccc3)ccc2=O)n[nH]c1=S, CCN1CCN(c2nc3c(c(=O)n(C)c(=O)n3C)n2CCSc2nccc(C)n2)CC1, Cc1ccc(OCc2nnc(NC(=O)c3ccco3)s2)c(C)c1, O=c1[nH]c(/C(Cl)=C/c2cccc(C(F)(F)F)c2)nc2cc(Cl)ccc12, C=C1C(=O)OC2C[C@@]3(C)CCCC(C)C3=CC12 (some centres not stated), CCN[C@@H]1C[C@H](C)S(=O)(=O)c2sc(S(N)(=O)=O)cc21, CCc1cccc2c(C=C(C#N)C#N)cn(CC(=O)N3CCCCCC3)c12, O=C(/C=C/c1ccc(Cl)cc1Cl)NCCSc1ccccc1, FC(F)(F)c1ccccc1-c1ccc2ncnc(NCc3cccnc3)c2c1, CN1CCN(CC(=O)N/N=C/c2ccc(F)c(F)c2)CC1, Cn1ncc([N+](=O)[O-])c1C(=O)Nc1nccs1, O=C(CSc1nnc(C2CCCCC2)o1)N1CCCCC1, Cc1ccc(C)c(NC(=S)NNC(=O)c2sccc2C)c1, Cc1oc(-c2cc(F)ccc2F)nc1CN1CCN(C)C(=O)[C@@H]1C

Potency, active:
CN(C)/C=C/C(=O)c1nnn(C2CCCCC2)c1NC1CCCCC1 14.1 µM, CC(=O)n1cc([C@H]2C=C(C(=O)N3CCN(Cc4ccccc4)CC3)O[C@@H](OCCCCO)C2)c2ccccc21 28.2 µM, O=c1c(Cc2ccccc2)c(O)ccn1Cc1ccc2c(c1)OCO2 2.24 µM, CCOc1ccc(NC(=S)Nc2cccc3cnccc23)cc1 31.6 µM, O=C(Nc1cccc(S(=O)(=O)N2CCOCC2)c1)c1cc2c(s1)CCC2 3.16 µM, Cc1cc(/C=C2\SC(=S)N(Cc3ccco3)C2=O)c(C)n1-c1ccccc1 0.0891 µM, COC(=O)c1cc(-c2ccccc2)sc1NC(=O)CN1C(=O)c2ccccc2C1=O 25.1 µM, COc1ccc(O)c(/C=N/c2sc(C)c(C)c2C#N)c1 10 µM, S=c1[nH]nc(COc2ccc3ccccc3c2)o1 3.55 µM, O=C(/C=C/c1ccco1)N1CCCC(c2ccccc2)C1 (configuration not stated) 10 µM, CCOC(=O)N=Nc1c(O)n(CC(=O)OC)c2ccccc12 7.08 µM, O=C(c1ccccc1F)N1CCN(c2ccc([N+](=O)[O-])c(NCC3CCCO3)c2)CC1 (configuration not stated) 11.2 µM

Potency, inconclusive:
Cc1ccc2nc(COc3ccc(Cl)cc3)cc(=O)n2c1 28.2 µM [inhibitor, single point], COc1ccc(CC(NC(C)=O)C(=O)NC2CCN(c3c(Cc4ccccc4)c(C)nc4ncnn34)CC2)c(OC)c1 (configuration not stated) 31.6 µM [inhibitor, partial curve], CCOC(=O)N1CCN(c2c(NCc3ccc(N(C)C)cc3)c(=O)c2=O)CC1 25.1 µM [inhibitor, single point], CC1(C)Oc2ccc(C(=O)NC3CCCC3)cc2N(CC(=O)NC2CCCC2)C1=O 28.2 µM [inhibitor, partial curve], CS(=O)(=O)Nc1ccc(Cc2ccc(NS(C)(=O)=O)cc2)cc1 37.7 µM [inhibitor, single point], COc1cc(COc2ccc3c(C)c(Cc4ccccc4)c(=O)oc3c2)cc(OC)c1OC 31.6 µM [inhibitor, partial curve], COc1ccc2c(c1OC)CN(C)CCc1cc3c(cc1C(O)C2)OCO3 (configuration not stated) 39.8 µM [inhibitor, single point], CCOC(=O)N1CCC(N2CCN(Cc3ccccc3)C(CCO)C2)CC1 (configuration not stated) 1.12 µM [inhibitor, full curve], O=C(N/N=C\c1cccc(Cl)c1)c1n[nH]c2c1CCCC2 39.8 µM [inhibitor, single point], CCCCn1c(C)cc2cc(O)ccc21 35.5 µM [inhibitor, single point], COc1ccc(CN2C3CCCC2CC(NC(=O)/C=C/c2ccccc2)C3)cc1 (configuration not stated) 25.1 µM [inhibitor, partial curve, poor fit], CCn1c(=O)c(=O)[nH]c2cc(C(=O)NC3CCCC3)ccc21 17.8 µM [inhibitor, partial curve], CCOC(=O)/C(C#N)=C/Nc1ccsc1C(=O)OC 39.8 µM [inhibitor, single point], COc1ccc(CN2C(=O)NC3(CCCCC3)C2=O)cc1F 44.7 µM [inhibitor, single point], CCOC(=O)C1=C(CC)OC(N)=C(C#N)C1c1cccs1 (configuration not stated) 28.2 µM [inhibitor, single point], Clc1ccccc1-c1nccc(NCc2ccccc2)n1 39.8 µM [inhibitor, single point], CC(C)c1onc(C(=O)NC(C)c2ccccc2)c1[N+](=O)[O-] (configuration not stated) 44.7 µM [inhibitor, single point], CCOc1ccc(S(=O)(=O)N(C)c2ccc(OCC(=O)Nc3ccc4[nH]c(=O)[nH]c4c3)cc2)cc1 11.2 µM [inhibitor, partial curve], CCCCOCCCNc1ncnc2c1[nH]c1ccccc12 39.8 µM [inhibitor, single point], CC(C)N(Cc1nc(-c2ccccc2)no1)C(=O)CSc1ccccc1 39.8 µM [inhibitor, single point], CCCCN(CC)C(=O)CSc1cc(=O)n(C)c2ccccc12 39.8 µM [inhibitor, single point], COc1cccc(OCC(O)CN(CCO)Cc2ccccc2)c1 (configuration not stated) 39.8 µM [inhibitor, single point], Cc1ccc2cc(CN(CC3CCCO3)C(=S)Nc3ccccc3)c(=O)[nH]c2c1C (configuration not stated) 22.4 µM [inhibitor, partial curve], COC(=O)c1c(C)oc2ccc(N(C(=O)Oc3ccccc3)S(=O)(=O)c3ccc(Cl)c([N+](=O)[O-])c3)cc12 22.4 µM [inhibitor, partial curve], COc1ccccc1CCn1c(=O)c(-c2cccs2)nc2cncnc21 39.8 µM [inhibitor, single point], Cc1cccc(-c2nc(C#N)c(NC3CCCCC3)o2)c1 31.6 µM [inhibitor, partial curve], O=C(COC(=O)Cn1cnc2ccccc2c1=O)NCCC1=CCCCC1 39.8 µM [inhibitor, single point], NC(=O)[C@@H]1CCCCNc2c(F)cc([N+](=O)[O-])cc2C(=O)N[C@@H](CCCN=C(N)N)C(=O)NCC(=O)N1 3.55 µM [inhibitor, single point], CCCn1nc(C(=O)Oc2ccc3c(C)cc(=O)oc3c2)c2ccccc2c1=O 3.16 µM [inhibitor, full curve], Nc1[nH]nc2nc(N3CCCC3)nc(-c3ccccc3)c12 39.8 µM [inhibitor, single point], COCc1c(Br)c(C)nc(OCC(=O)N/N=C/c2ccc(C)o2)c1C#N 39.8 µM [inhibitor, single point], Cc1ccc(C(=O)NCCSc2snnc2C)cc1 25.1 µM [inhibitor, single point], OCc1cn(-c2ccccc2)nc1-c1ccc2c(c1)OCCO2 22.4 µM [inhibitor, partial curve], NC(=O)c1sc(=S)n2c1[nH]c(=O)c1sccc12 28.2 µM [inhibitor, single point], COc1cc(NC(=O)c2ccco2)c(OC)cc1NC(=O)Nc1ccccc1Cl 39.8 µM [inhibitor, single point], COc1ccc(/C=C/C(=O)c2c(O)c(OC)c3occc3c2OC)cc1 3.55 µM [inhibitor, full curve], O=C(NCC1CCCO1)c1cc2c(s1)CS(=O)(=O)C2 (configuration not stated) 31.6 µM [inhibitor, partial curve], CN1CCN(c2nc(-c3ccc(Cl)s3)cs2)CC1 39.8 µM [inhibitor, single point], CCCCCCS(=O)[C@H]1CS(=O)(=O)C[C@@H]1S(=O)CCCCCC (some centres not stated) 35.5 µM [inhibitor, single point], CCOc1ccc2[nH]c(=O)c(CN(CCO)C(=O)c3ccc(Br)cc3)cc2c1 28.2 µM [inhibitor, single point], COCCNC(=O)c1ccc2c(=O)n(CCCN3CCCC3=O)c(=S)[nH]c2c1 25.1 µM [inhibitor, partial curve], COC(=O)Cc1ccc(NC(=S)NNC(=O)c2ccccc2Br)cc1 31.6 µM [inhibitor, single point], Cc1nc(N2CCOCC2)c2nc(-c3ccccc3)n(CC3CCN(C)CC3)c2n1 20 µM [inhibitor, partial curve]

activity, negative = inhibition, inactive:
c1ccc2c(c1)c1ccccc1n2Cn1c2ccccc2c2ccccc21 -6.92% [at 13.5 µM]
